Source: publication PMC5892938
This is one part of the list. At the low end of the ranking the order means little.

These sequences were tested against GST-SBP-SLBP (stem-loop binding protein) (UniProt Q14493) (assay: targeted RNA Bind-n-Seq). Settings: RBNS binding buffer: 25 mM Tris pH 7.5, 150 mM KCl, 3 mM MgCl2, 0.1% Tween, 0.5 mg/mL BSA, 1 mM DTT; 27 nM protein, 750 pM RNA pool; temperature not stated; high values mean tight binding.
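Further: DESeq read counts versus GST-SBP nonspecific binding control pulldown.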

| Sequence | binding signal (log2 fold change) |
| --- | --- |
| GGUCACGUCUCAAUCAACUCAUUCUCAGGAGUUUUCUCCUGCAUUCUCAACAGCUCGCAGUCAAG | 0.141 |
| GGUCACGUCUCAAUCAACUCAUCGUCAGGAGUUUCCUCCUGCAUUUUCAACAGCUCGCAGUCAAG | -0.0702 |
| GGUCACGUCUCAAUCAACUCAAUCUCCAGGGAAACCCCUGGCAUAGUCAACAGCUCGCAGUCAAG | 0.27 |
| GGUCACGUCUCAAUCAACUCAUUUUCCAGGGAAAUCCCUGGCGUUUUCAACAGCUCGCAGUCAAG | 0.0422 |
| GGUCACGUCUCAAUCAACUCAGUCUCAGGAGUUUUCUCCUGCUAUCUCAACAGCUCGCAGUCAAG | 0.143 |
| GGUCACGUCUCAAUCAACUCAUCCCCAGGAGUUUACUCCUGUUAAGUCAACAGCUCGCAGUCAAG | 0.132 |
| GGUCACGUCUCAAUCAACUCUACUUCAGGAGUUUACUCCUGUAUUCUCAACAGCUCGCAGUCAAG | 0.0404 |
| GGUCACGUCUCAAUCAACUCUUCCUCCAGGGAAAACCCUGGCAUACUCAACAGCUCGCAGUCAAG | -0.0223 |
| GGUCACGUCUCAAUCAACUCUUUCUCCAGGGAAAUCCCUGGCAUGUUCAACAGCUCGCAGUCAAG | 0.0862 |
| GGUCACGUCUCAAUCAACUCAUCUUCAGGAGUUUUCUCCUGUUUACUCAACAGCUCGCAGUCAAG | 0.0707 |
| GGUCACGUCUCAAUCAACUCAAUUCCCAGGGAAAGCCCUGGUAUUCUCAACAGCUCGCAGUCAAG | -0.202 |
| GGUCACGUCUCAAUCAACUCUUCUCCCAGGGAAAUCCCUGGUUAUUUCAACAGCUCGCAGUCAAG | -0.126 |
| GGUCACGUCUCAAUCAACUCUUCCCCCAGGGAAAUCCCUGGUUUACUCAACAGCUCGCAGUCAAG | -0.0579 |
| GGUCACGUCUCAAUCAACUCACACGAGGGGGGGAAAACCCCUUUGCCCUCAUCUUCAACAGCUCGCAGUCAAG | -0.392 |
| GGUCACGUCUCAAUCAACUCAUCAGAGGGGGGGAAAACCCCUUUACCCUCAUUAUCAACAGCUCGCAGUCAAG | 0.163 |
| GGUCACGUCUCAAUCAACUCAAAAGAGGGGGGGAAAACCCCUUUACCCUCGAAUUCAACAGCUCGCAGUCAAG | 0.152 |
| GGUCACGUCUCAAUCAACUCAAUCCCAGGAGUUUGCUCCUGCAAUGUCAACAGCUCGCAGUCAAG | 0.182 |
| GGUCACGUCUCAAUCAACUCAAGGUCAGGAGUUUUCUCCUGUAUAUUCAACAGCUCGCAGUCAAG | -0.0343 |
| GGUCACGUCUCAAUCAACUCAUUUUCCAGGGAAAGCCCUGGCUUAUUCAACAGCUCGCAGUCAAG | -0.195 |
| GGUCACGUCUCAAUCAACUCUCCAGAGGGGGGGAAAACCCCUUUGCCCUCAUAUUCAACAGCUCGCAGUCAAG | -0.273 |
| GGUCACGUCUCAAUCAACUCUACUUCCAGGGAAAGCCCUGGUAAUUUCAACAGCUCGCAGUCAAG | -0.174 |
| GGUCACGUCUCAAUCAACUCUUUUCCCAGGGAAACCCCUGGCUAUUUCAACAGCUCGCAGUCAAG | 0.152 |
| GGUCACGUCUCAAUCAACUCAAUCCCCAGGGAAAUCCCUGGCUUUUUCAACAGCUCGCAGUCAAG | 0.111 |
| GGUCACGUCUCAAUCAACUCAUUUCCCAGGGAAAGCCCUGGUAUUCUCAACAGCUCGCAGUCAAG | -0.0221 |

| Sequence | binding signal (log2 fold change) |
| --- | --- |
| GGUCACGUCUCAAUCAACUCAUUUUCAGGAGUUUUCUCCUGUAAUUUCAACAGCUCGCAGUCAAG | 0.0767 |
| GGUCACGUCUCAAUCAACUCUUCUUCAGGAGUUUCCUCCUGUAAUUUCAACAGCUCGCAGUCAAG | 0.219 |
| GGUCACGUCUCAAUCAACUCAAUUUCCAGGGAAACCCCUGGCGUUUUCAACAGCUCGCAGUCAAG | -0.244 |
| GGUCACGUCUCAAUCAACUCUAUUUCAGGAGUUUCCUCCUGUAUUCUCAACAGCUCGCAGUCAAG | 0.176 |
| GGUCACGUCUCAAUCAACUCAUCGUCAGGAGUUUUCUCCUGUAUAUUCAACAGCUCGCAGUCAAG | -0.106 |
| GGUCACGUCUCAAUCAACUCUCAAGAGGGGGGGAAAACCCCUUUACCCUCGUCCUCAACAGCUCGCAGUCAAG | 0.105 |
| GGUCACGUCUCAAUCAACUCAUUCCCAGGAGUUUUCUCCUGCAUAUUCAACAGCUCGCAGUCAAG | 0.237 |
| GGUCACGUCUCAAUCAACUCAUCCCCAGGAGUUUACUCCUGCAAAGUCAACAGCUCGCAGUCAAG | 0.0527 |
| GGUCACGUCUCAAUCAACUCAUCGUCAGGAGUUUCCUCCUGUAUUCUCAACAGCUCGCAGUCAAG | 0.103 |
| GGUCACGUCUCAAUCAACUCUAUGUCAGGAGUUUUCUCCUGUUAAUUCAACAGCUCGCAGUCAAG | 0.258 |
| GGUCACGUCUCAAUCAACUCAAGUCCAGGAGUUUUCUCCUGUAAUCUCAACAGCUCGCAGUCAAG | 0.114 |
| GGUCACGUCUCAAUCAACUCUAUCUCCAGGGAAAUCCCUGGUAAACUCAACAGCUCGCAGUCAAG | 0.306 |
| GGUCACGUCUCAAUCAACUCUUCCCCAGGAGUUUUCUCCUGUAUUCUCAACAGCUCGCAGUCAAG | -0.0726 |
| GGUCACGUCUCAAUCAACUCAAUUCCCAGGGAAAGCCCUGGCAUACUCAACAGCUCGCAGUCAAG | 0.0504 |
| GGUCACGUCUCAAUCAACUCUAGUCCAGGAGUUUUCUCCUGCAAAUUCAACAGCUCGCAGUCAAG | -0.152 |
| GGUCACGUCUCAAUCAACUCUAUCCCCAGGGAAACCCCUGGCUUACUCAACAGCUCGCAGUCAAG | 0.376 |
| GGUCACGUCUCAAUCAACUCAUCCUCAGGAGUUUUCUCCUGUUUUUUCAACAGCUCGCAGUCAAG | -0.187 |
| GGUCACGUCUCAAUCAACUCUUUCUCCAGGGAAAGCCCUGGCUUUUUCAACAGCUCGCAGUCAAG | 0.0407 |
| GGUCACGUCUCAAUCAACUCAUCCUCCAGGGAAAACCCUGGCUUACUCAACAGCUCGCAGUCAAG | -0.171 |
| GGUCACGUCUCAAUCAACUCACUAGAGGGGGGGAAAACCCCUUUACCCUCAAUCUCAACAGCUCGCAGUCAAG | -0.13 |
| GGUCACGUCUCAAUCAACUCAAUCCCCAGGGAAAACCCUGGCAUUUUCAACAGCUCGCAGUCAAG | -0.15 |
| GGUCACGUCUCAAUCAACUCUUCCUCAGGAGUUUCCUCCUGCUAUCUCAACAGCUCGCAGUCAAG | 0.184 |
| GGUCACGUCUCAAUCAACUCAAUUCCAGGAGUUUUCUCCUGUUAACUCAACAGCUCGCAGUCAAG | -0.101 |
| GGUCACGUCUCAAUCAACUCUUUCGAGGGGGGGAAAACCCCUUUACCCUCUUUCUCAACAGCUCGCAGUCAAG | -0.0974 |
